pIC50: −log10 of the molar value. By IC50 is meant the dose at which the fit gives 50% viability; where the fit passes the top or lowest dose, that dose stands as a limit. AUC, from the same fit, is the share of area under the viability curve across the 256-fold dose range; values near 1 show little effect. For some assays here: A top dose marked as inferred was derived from the fitted curves, not read from the paper. For some assays here: Drugs with an entry number were screened twice under separate entries, and the two screens often disagree.
Key:
Experiment in all cases: Viability of human cancer cell lines after 72 h of drug (GDSC screen)
SNX-2112 = compound: CC1(C)CC(=O)c2c(C(F)(F)F)nn(-c3ccc(C(N)=O)c(N[C@H]4CC[C@H](O)CC4)c3)c2C1 [SNX-2112]; conditions: top dose 2.56 µM
Method: (§1)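 Human cancer cell lines in 384-well plates, medium with 10% serum, drug for 72 h over a 256-fold dose range (nine 2-fold or five 4-fold steps up to the top dose). Adherent lines were fixed and stained with the nucleic acid dye Syto60, suspension lines read with resazurin; signal relative to control wells, capped at 0 and 100%. One two-parameter sigmoid per drug and line, fitted in a mixed model over all curves with the slope shared within a line.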

Vinblastine = compound: CC[C@]1(O)C[C@@H]2CN(CCc3c([nH]c4ccccc34)[C@@](C(=O)OC)(c3cc4c(cc3OC)N(C)[C@H]3[C@@](O)(C(=O)OC)[C@H](OC(C)=O)[C@]5(CC)C=CCN6CC[C@]43[C@@H]65)C2)C1 [Vinblastine]; conditions: top dose 0.1 µM; top dose inferred
Method: as §1

XMD13-2 = compound: O=C(NC1CC1)c1cccc(-c2ccc3c(NC(=O)C4CC4)n[nH]c3c2)c1 [XMD13-2]; conditions: top dose 10.24 µM; top dose inferred
Method: as §1

PF-562271 = compound: CN(c1ncccc1CNc1nc(Nc2ccc3c(c2)CC(=O)N3)ncc1C(F)(F)F)S(C)(=O)=O [PF-562271]; conditions: top dose 2.56 µM; top dose inferred
Method: as §1

Afatinib = compound: CN(C)C/C=C/C(=O)Nc1cc2c(Nc3ccc(F)c(Cl)c3)ncnc2cc1O[C@H]1CCOC1 [Afatinib]
Method: as §1

[1] = top dose 0.5 µM, screen: GDSC drug entry 1032
[2] = top dose 10 µM, screen: GDSC drug entry 1377, top dose inferred

Cell Line | AUC (SNX-2112) | pIC50 (SNX-2112) | AUC (Vinblastine) | pIC50 (Vinblastine) | AUC (XMD13-2) | pIC50 (XMD13-2) | AUC (PF-562271) | pIC50 (PF-562271) | AUC (Afatinib; [1]) | pIC50 (Afatinib; [1]) | AUC (Afatinib; [2]) | pIC50 (Afatinib; [2])
LS-1034 (large intestine, adherent) | 0.497 | 6.80 | 0.952 | < 7.00 | 0.891 | < 4.99 | 0.962 | < 5.59 | 0.948 | < 6.30 | 0.978 | < 5.00
LU-134-A (small cell lung carcinoma, suspension) | 0.3 | 7.38 | 0.804 | 7.27 | 0.941 | < 4.99 | 0.939 | < 5.59 | 0.987 | < 6.30 | 0.985 | < 5.00
LU-135 (small cell lung carcinoma, suspension) | 0.456 | 6.91 | 0.462 | 8.30 | 0.836 | 5.28 | 0.862 | 5.79 | 0.989 | < 6.30 | 0.992 | < 5.00
LU-139 (small cell lung carcinoma, suspension) | 0.805 | 5.76 | 0.558 | 8.03 | 0.785 | 5.24 | 0.972 | < 5.59 | 0.714 | 6.82 | 0.943 | < 5.00
LU-165 (small cell lung carcinoma, suspension) | 0.737 | 6.08 | 0.988 | < 7.00 | 0.979 | < 4.99 | 0.969 | < 5.59 | 0.988 | < 6.30 | 0.968 | < 5.00
LXF-289 (lung adenocarcinoma, adherent) | 0.651 | 6.38 | 0.502 | 8.20 | 0.939 | < 4.99 | 0.889 | < 5.59 | 0.979 | < 6.30 | 0.937 | < 5.00
LoVo (large intestine, adherent) | 0.76 | 6.04 | 0.503 | 8.20 | 0.945 | < 4.99 | 0.918 | < 5.59 | 0.927 | < 6.30 | 0.896 | < 5.00
M14 (melanoma, adherent) | 0.561 | 6.63 | 0.575 | 7.99 | 0.986 | < 4.99 | 0.983 | < 5.59 | 0.984 | < 6.30 | 0.978 | < 5.00
M059J (glioma, adherent) | 0.439 | 6.97 | 0.634 | – | 0.887 | < 4.99 | 0.904 | < 5.59 | 0.982 | < 6.30 | 0.982 | < 5.00
MC116 (B-cell lymphoma, suspension) | 0.225 | 7.46 | 0.497 | 8.21 | 0.926 | 5.14 | 0.966 | 5.60 | 0.999 | < 6.30 | 0.999 | < 5.00
MC-CAR (haematopoietic neoplasm, suspension) | 0.214 | 7.58 | 0.492 | 8.22 | 0.821 | 5.29 | 0.95 | < 5.59 | 0.989 | < 6.30 | 0.974 | < 5.00
MDA-MB-330 (breast, adherent) | 0.666 | 6.30 | 0.855 | 7.01 | 0.982 | < 4.99 | 0.981 | < 5.59 | 0.774 | 6.65 | 0.821 | 5.16
MDA-MB-361 (breast, adherent) | 0.493 | 6.82 | 0.303 | 8.76 | 0.954 | < 4.99 | 0.963 | < 5.59 | 0.951 | < 6.30 | 0.838 | 5.17
MDA-MB-415 (breast, adherent) | 0.97 | < 5.59 | 0.674 | 7.64 | 0.98 | < 4.99 | 0.959 | < 5.59 | 0.98 | < 6.30 | 0.965 | < 5.00
MDST8 (large intestine, adherent) | 0.404 | 7.06 | 0.525 | 8.14 | 0.962 | < 4.99 | 0.973 | < 5.59 | 0.951 | < 6.30 | 0.942 | < 5.00
ME-1 (acute myeloid leukaemia, suspension) | 0.764 | 6.00 | 0.943 | < 7.00 | 0.986 | < 4.99 | 0.988 | < 5.59 | 0.988 | < 6.30 | 0.987 | < 5.00
MEG-01 (chronic myeloid leukaemia, suspension) | 0.358 | 7.18 | 0.635 | 7.84 | 0.919 | < 4.99 | 0.957 | < 5.59 | 0.984 | < 6.30 | 0.956 | < 5.00
MEL-JUSO (melanoma, adherent) | 0.321 | 7.33 | 0.631 | 7.82 | 0.903 | < 4.99 | 0.84 | 5.69 | 0.984 | < 6.30 | 0.972 | < 5.00
MFE-280 (endometrium, adherent) | 0.665 | 6.28 | 0.918 | < 7.00 | 0.911 | < 4.99 | 0.923 | < 5.59 | 0.982 | < 6.30 | 0.971 | < 5.00
MFE-296 (endometrium, adherent) | 0.914 | < 5.59 | 0.488 | 8.24 | 0.968 | < 4.99 | 0.858 | 5.63 | 0.979 | < 6.30 | 0.984 | < 5.00
MFM-223 (breast, adherent) | 0.801 | 5.91 | 0.589 | 7.96 | 0.979 | < 4.99 | 0.989 | < 5.59 | 0.989 | < 6.30 | 0.983 | < 5.00
MG-63 (osteosarcoma, adherent) | 0.982 | < 5.59 | 0.644 | 7.78 | 0.981 | < 4.99 | 0.712 | 6.15 | 0.949 | < 6.30 | – | –

Cell Line | AUC (SNX-2112) | pIC50 (SNX-2112) | AUC (Vinblastine) | pIC50 (Vinblastine) | AUC (XMD13-2) | pIC50 (XMD13-2) | AUC (PF-562271) | pIC50 (PF-562271) | AUC (Afatinib; [1]) | pIC50 (Afatinib; [1]) | AUC (Afatinib; [2]) | pIC50 (Afatinib; [2])
MHH-ES-1 (Ewing sarcoma, adherent) | 0.237 | 7.55 | 0.4 | 8.48 | 0.795 | 5.33 | 0.85 | 5.72 | 0.975 | < 6.30 | 0.95 | < 5.00
MHH-NB-11 (neuroblastoma, adherent) | 0.532 | 6.70 | 0.762 | 7.41 | 0.844 | 5.07 | 0.949 | < 5.59 | 0.957 | < 6.30 | – | –
MHH-PREB-1 (B-cell leukaemia, suspension) | 0.298 | 7.33 | 0.369 | 8.55 | 0.902 | < 4.99 | 0.953 | < 5.59 | 0.983 | < 6.30 | 0.939 | < 5.00
MIA-PaCa-2 (pancreas, adherent) | 0.952 | < 5.59 | 0.464 | 8.31 | 0.954 | < 4.99 | 0.909 | < 5.59 | 0.983 | < 6.30 | 0.983 | < 5.00
MKN28 (stomach, adherent) | 0.795 | 5.91 | 0.596 | 7.94 | 0.955 | < 4.99 | 0.897 | < 5.59 | 0.973 | < 6.30 | – | –
MKN45 (stomach, adherent) | 0.728 | 6.07 | 0.685 | 7.62 | 0.946 | < 4.99 | 0.905 | < 5.59 | 0.979 | < 6.30 | 0.958 | < 5.00
ML-2 (acute myeloid leukaemia, suspension) | 0.18 | 7.69 | 0.562 | 8.04 | 0.806 | 5.35 | 0.871 | 5.71 | 0.988 | < 6.30 | 0.989 | < 5.00
MLMA (hairy cell leukaemia, semi-adherent) | 0.318 | 7.31 | 0.485 | 8.25 | 0.792 | 5.33 | 0.937 | < 5.59 | 0.983 | < 6.30 | 0.961 | < 5.00
MMAC-SF (melanoma, adherent) | 0.987 | < 5.59 | 0.639 | 7.81 | 0.963 | < 4.99 | 0.968 | < 5.59 | 0.982 | < 6.30 | 0.984 | < 5.00
MN-60 (B-cell leukaemia, suspension) | 0.583 | 6.56 | 0.924 | < 7.00 | 0.951 | < 4.99 | 0.961 | < 5.59 | 0.987 | < 6.30 | 0.986 | < 5.00
MOG-G-CCM (glioma, adherent) | 0.394 | 7.11 | 0.412 | 8.46 | 0.837 | 5.07 | 0.84 | 5.66 | 0.983 | < 6.30 | 0.974 | < 5.00
MOG-G-UVW (glioma, adherent) | 0.755 | 6.07 | 0.233 | 8.97 | 0.886 | < 4.99 | 0.91 | < 5.59 | 0.985 | < 6.30 | 0.905 | < 5.00
MOLM-13 (acute myeloid leukaemia, suspension) | 0.139 | 7.88 | 0.448 | 8.34 | 0.821 | 5.27 | 0.571 | 6.61 | 0.983 | < 6.30 | 0.961 | < 5.00
MOLP-8 (myeloma, suspension) | 0.244 | 7.52 | 0.732 | 7.55 | 0.712 | 5.61 | 0.83 | 5.82 | 0.984 | < 6.30 | 0.977 | < 5.00
MOLT-4 (lymphoblastic leukaemia, suspension) | 0.252 | 7.43 | 0.452 | 8.32 | 0.886 | 5.12 | 0.92 | < 5.59 | 0.985 | < 6.30 | 0.96 | < 5.00
MONO-MAC-6 (acute myeloid leukaemia, suspension) | 0.22 | 7.64 | 0.49 | 8.23 | 0.926 | < 4.99 | 0.798 | 5.89 | 0.972 | < 6.30 | 0.924 | < 5.00
MPP-89 (mesothelioma, adherent) | 0.972 | < 5.59 | 0.632 | 7.79 | 0.97 | < 4.99 | 0.972 | < 5.59 | 0.938 | < 6.30 | 0.922 | < 5.00
MRK-nu-1 (breast, suspension) | 0.565 | 6.63 | 0.918 | < 7.00 | 0.931 | < 4.99 | 0.869 | 5.69 | 0.99 | < 6.30 | 0.989 | < 5.00
MS751 (cervix, adherent) | 0.714 | 6.22 | 0.453 | 8.33 | 0.908 | < 4.99 | 0.959 | < 5.59 | 0.967 | < 6.30 | 0.978 | < 5.00
MS-1 (small cell lung carcinoma, suspension) | 0.294 | 7.34 | 0.847 | 7.21 | 0.871 | 5.10 | 0.95 | < 5.59 | 0.988 | < 6.30 | 0.991 | < 5.00
MSTO-211H (mesothelioma, adherent) | 0.965 | < 5.59 | 0.584 | 7.99 | 0.989 | < 4.99 | 0.99 | < 5.59 | 0.991 | < 6.30 | 0.99 | < 5.00
